Reference: publication PMC9911399, “Two distinct binding modes provide the RNA-binding protein RbFox with extraordinary sequence specificity”
Where a chain is given by its changes, count along the chain named. The list shows a part of the results.

T1: RBFOX1 RRM RbFoxmut (Fox-RRM*) (Homo sapiens, UniProt Q9NWB1 109-208, R118D;E147R;N151S;E152T)
T1 sequence: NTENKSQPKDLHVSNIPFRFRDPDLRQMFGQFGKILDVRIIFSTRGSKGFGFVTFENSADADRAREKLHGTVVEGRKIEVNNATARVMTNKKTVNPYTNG

B1: AAAAUCU (DNA:RNA)
RNA: GGGAGACCGGAAUUCAGAUUGUCCAAAAUCUUUAAAUCCCGUCGUAGCCACCA
DNA 1: CAATCTGAATTCCGGTCTCCC
DNA 2: TGGTGGCTACGACGGGATT
B2: GCGGAAG (DNA:RNA)
RNA: GGGAGACCGGAAUUCAGAUUGUCCGCGGAAGUUAAAUCCCGUCGUAGCCACCA
DNA 1: CAATCTGAATTCCGGTCTCCC
DNA 2: TGGTGGCTACGACGGGATT
B3: AAUAAAC (DNA:RNA)
RNA: B1 RNA with A27U, U29A, C30A, U31C
DNA 1: CAATCTGAATTCCGGTCTCCC
DNA 2: TGGTGGCTACGACGGGATT
B4: CUGGGCA (DNA:RNA)
RNA: B2 RNA with G25C, C26U, A29G, A30C, G31A
DNA 1: CAATCTGAATTCCGGTCTCCC
DNA 2: TGGTGGCTACGACGGGATT
B5: AAUGCAC (DNA:RNA)
RNA: B1 RNA with A27U, A28G, U29C, C30A, U31C
DNA 1: CAATCTGAATTCCGGTCTCCC
DNA 2: TGGTGGCTACGACGGGATT
B6: CCUUACC (DNA:RNA)
RNA: B2 RNA with G25C, G27U, G28U, A30C, G31C
DNA 1: CAATCTGAATTCCGGTCTCCC
DNA 2: TGGTGGCTACGACGGGATT
B7: CGUUUGA (DNA:RNA)
RNA: B1 RNA with A25C, A26G, A27U, A28U, C30G, U31A
DNA 1: CAATCTGAATTCCGGTCTCCC
DNA 2: TGGTGGCTACGACGGGATT
B8: UUAGCCA (DNA:RNA)
RNA: B1 RNA with A25U, A26U, A28G, U29C, U31A
DNA 1: CAATCTGAATTCCGGTCTCCC
DNA 2: TGGTGGCTACGACGGGATT
B9: GUCCGGA (DNA:RNA)
RNA: B2 RNA with C26U, G27C, G28C, A29G, A30G, G31A
DNA 1: CAATCTGAATTCCGGTCTCCC
DNA 2: TGGTGGCTACGACGGGATT
B10: GCAGUGG (DNA:RNA)
RNA: B2 RNA with G27A, A29U, A30G
DNA 1: CAATCTGAATTCCGGTCTCCC
DNA 2: TGGTGGCTACGACGGGATT
B11: CCUUGGA (DNA:RNA)
RNA: B2 RNA with G25C, G27U, G28U, A29G, A30G, G31A
DNA 1: CAATCTGAATTCCGGTCTCCC
DNA 2: TGGTGGCTACGACGGGATT
B12: UGGCCCU (DNA:RNA)
RNA: B1 RNA with A25U, A26G, A27G, A28C, U29C
DNA 1: CAATCTGAATTCCGGTCTCCC
DNA 2: TGGTGGCTACGACGGGATT
B13: CCAACCG (DNA:RNA)
RNA: B1 RNA with A25C, A26C, U29C, U31G
DNA 1: CAATCTGAATTCCGGTCTCCC
DNA 2: TGGTGGCTACGACGGGATT
B14: AAGGAUU (DNA:RNA)
RNA: B1 RNA with A27G, A28G, U29A, C30U
DNA 1: CAATCTGAATTCCGGTCTCCC
DNA 2: TGGTGGCTACGACGGGATT
B15: UCACUAU (DNA:RNA)
RNA: B1 RNA with A25U, A26C, A28C, C30A
DNA 1: CAATCTGAATTCCGGTCTCCC
DNA 2: TGGTGGCTACGACGGGATT
B16: AUGGACU (DNA:RNA)
RNA: B1 RNA with A26U, A27G, A28G, U29A
DNA 1: CAATCTGAATTCCGGTCTCCC
DNA 2: TGGTGGCTACGACGGGATT
B17: AGCUAGG (DNA:RNA)
RNA: B2 RNA with G25A, C26G, G27C, G28U, A30G
DNA 1: CAATCTGAATTCCGGTCTCCC
DNA 2: TGGTGGCTACGACGGGATT
B18: UGGCUGU (DNA:RNA)
RNA: B1 RNA with A25U, A26G, A27G, A28C, C30G
DNA 1: CAATCTGAATTCCGGTCTCCC
DNA 2: TGGTGGCTACGACGGGATT
B19: GUUGCCA (DNA:RNA)
RNA: B2 RNA with C26U, G27U, A29C, A30C, G31A
DNA 1: CAATCTGAATTCCGGTCTCCC
DNA 2: TGGTGGCTACGACGGGATT
B20: CGUGAAC (DNA:RNA)
RNA: B2 RNA with G25C, C26G, G27U, G31C
DNA 1: CAATCTGAATTCCGGTCTCCC
DNA 2: TGGTGGCTACGACGGGATT

target: T1, RBFOX1 RRM RbFoxmut (Fox-RRM*); test: EMSA; HiTS-Eq, 1 nM pool, 10 min; buffer printed only for the single-RNA assays: 10 mM Tris pH 7.5, 150 mM NaCl, 3.4 mM EDTA, 0.001% NP-40, 30 C; details: tags: His6 N-terminal (pET28a); label: 5' 32P
In short: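 Relative association constants, normalised to the cognate motif, were derived by comparing read counts of each RNA species with those of the control reaction. The RNA sequenced was the free fraction, separated by 8% native PAGE after a 10 min equilibration in 50 µL of 1 nM 5′-radiolabelled RNA (7 randomized nucleotides) with increasing concentrations of purified wild-type or mutant RbFox RRM.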

B1 was tested. Which binding signal did it give?
Its binding signal is 0.0542 KA relative to UGCAUGU.

B2 was tested. Which binding signal did it give?
Its binding signal is 0.0917 KA relative to UGCAUGU.

Which binding signal does the source give for B3 here?
Its binding signal is 0.0401 KA relative to UGCAUGU.

With B4 as the binder, how does the binding signal read?
Its binding signal is 0.092 KA relative to UGCAUGU.

How did the binding signal turn out when B5 was run?
The binding signal was 0.0794 KA relative to UGCAUGU.

With B6 as the binder, how does the binding signal read?
The binding signal was 0.0957 KA relative to UGCAUGU.

How did the binding signal turn out when B7 was run?
Its binding signal is 0.205 KA relative to UGCAUGU.

For B8, which binding signal is on record?
Its binding signal is 0.101 KA relative to UGCAUGU.

For B9, which binding signal is on record?
The binding signal was 0.0725 KA relative to UGCAUGU.

With B10 as the binder, how does the binding signal read?
Its binding signal is 0.0932 KA relative to UGCAUGU.

How did the binding signal turn out when B11 was run?
The binding signal was 0.0815 KA relative to UGCAUGU.

Which binding signal does the source give for B12 here?
The binding signal was 0.0838 KA relative to UGCAUGU.

For B13, which binding signal is on record?
The binding signal was 0.145 KA relative to UGCAUGU.

With B14 as the binder, how does the binding signal read?
The binding signal was 0.0826 KA relative to UGCAUGU.

How did the binding signal turn out when B15 was run?
The binding signal was 0.0711 KA relative to UGCAUGU.

With B16 as the binder, how does the binding signal read?
Its binding signal is 0.0593 KA relative to UGCAUGU.

For B17, which binding signal is on record?
The binding signal was 0.126 KA relative to UGCAUGU.

For B18, which binding signal is on record?
Its binding signal is 0.299 KA relative to UGCAUGU.

Which binding signal does the source give for B19 here?
Its binding signal is 0.0944 KA relative to UGCAUGU.

B20 was tested. Which binding signal did it give?
Its binding signal is 0.0865 KA relative to UGCAUGU.
